Reference: US20240425546A1 (NANTONG YICHEN BIOPHARMA, published 2024)

How the values were obtained:
CL-E2-mFc = target: T1, CL-E2-mFc (mouse, UniProt P01863 123-330 = IgG part); assay: ELISA, antigen coated
T1 construct: scFv fused to the Fc of mouse IgG2a by a linker, made in HEK 293F; also called CL-E2-mFc fusion protein; CL-E2-mFc antibody

E64AK-A9-mFc = target: T2, E64AK-A9-mFc (mouse, UniProt P01863 123-330 = IgG part); assay: ELISA, antigen coated
T2 construct: scFv fused to the Fc of mouse IgG2a by a linker; also called E64AK-A9-mFc fusion antibody; E64AK-A9-mFc antibody fusion protein

B1: hIL-1βE64AK (ligand)
chain: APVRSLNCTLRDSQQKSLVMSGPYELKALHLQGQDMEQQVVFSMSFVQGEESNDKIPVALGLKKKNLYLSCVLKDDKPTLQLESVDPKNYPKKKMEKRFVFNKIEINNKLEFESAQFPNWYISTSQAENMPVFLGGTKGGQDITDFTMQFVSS
modifications: Nε-acryloyl-L-lysine (AK) at position 64
notes: Non-canonical amino acid put in by amber suppression
- Kd (CL-E2-mFc): 4.2 nM
- Kd (E64AK-A9-mFc): 1.2 nM
